Laboratory results published in publication PMC8021565, “Structure of the mannose phosphotransferase system (man-PTS) complexed with microcin E492, a pore-forming bacteriocin” (Cell Discovery, 2021).

Biological target: T1, MccE492–ManYZ (MceA–ManYZ) complex; man-PTS (Escherichia coli, UniProt P69801+P69805)
T1 construct: gene manY; ManY and ManZ co-expressed in E. coli with GST-MceA (Klebsiella pneumoniae RYC492, without siderophore); GST removed; MccE492:ManYZ 3:3 trimer; MccE492 S78-S84 not modelled; with Microcin E492
Experiment: cryo-EM structure, […] Å
Assay type: binding
Settings: bound in occluded conformation in the middle of the membrane, clamped by CoreY and CoreZ; complex with MccE492 (MceA)

**Q.** How did the “cryo-EM structure, 2.28 Å” value turn out when OC[C@H]1OC(O)[C@@H](O)[C@@H](O)[C@@H]1O (stereo partly shown) [mannose] was run?
**A.** In the MccE492–ManYZ structure, the mannose substrate is localized in the middle of the membrane
